Data taken from the supplement of paper PMC3334620.
In all, about 33,000 sequences were measured (“E-score (-0.5 to 0.5)”: median about -0.035, highest 2% from about 0.34 on). The list shows a part of the results.

What follows are sequences tested against T1, Mot3 (UniProt P54785) (assay: PBM E-score (8-mer binding enrichment) (E-score (-0.5 to 0.5)); higher = stronger / more preferred TF binding; most listed sequences are background and not binding sites). Settings: protein concentration: 200 nM; construct: GST-full length.
T1 sequence: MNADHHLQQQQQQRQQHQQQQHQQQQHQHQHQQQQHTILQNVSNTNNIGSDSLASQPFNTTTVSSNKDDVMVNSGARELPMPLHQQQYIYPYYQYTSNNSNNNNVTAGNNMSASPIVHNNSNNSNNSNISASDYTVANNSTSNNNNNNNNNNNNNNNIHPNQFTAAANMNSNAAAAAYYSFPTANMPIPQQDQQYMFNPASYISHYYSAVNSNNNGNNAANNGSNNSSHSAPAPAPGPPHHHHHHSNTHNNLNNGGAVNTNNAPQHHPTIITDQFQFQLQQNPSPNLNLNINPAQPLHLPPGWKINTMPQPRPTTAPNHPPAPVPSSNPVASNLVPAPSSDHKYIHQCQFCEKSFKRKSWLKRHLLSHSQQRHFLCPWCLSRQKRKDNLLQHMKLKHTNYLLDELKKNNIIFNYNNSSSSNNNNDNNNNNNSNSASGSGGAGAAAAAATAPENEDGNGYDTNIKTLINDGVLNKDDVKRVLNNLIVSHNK
Method: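 Universal 'all 10-mer' protein binding microarrays (Agilent AMADID 015681) probed with GST-tagged S. cerevisiae TFs (full-length or DBD) made by in vitro transcription/translation (PURExpress), about 100-200 nM. Bound TF was detected with fluorescent anti-GST. Each ungapped 8-mer (which stands for itself and its reverse complement) is scored by the PBM enrichment score (E-score), a modified Wilcoxon-Mann-Whitney statistic from -0.5 to +0.5, computed with the Universal PBM Analysis Suite. Scale: above 0.35 generally sequence-specific binding.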

Row | Sequence | PBM E-score
1 | CGACCGAG | -0.308
2 | GTGGGAGA | -0.222
3 | CAACTTGC | -0.0812
4 | CATCGAGA | -0.133
5 | AAAATTGC | 0.0171
6 | AGCTCTGG | -0.238
7 | CGCGCACA | 0.0112
8 | AAAATGTC | 0.0358
9 | AAATCCCC | -0.208
10 | CCAGAGCG | -0.325
11 | ACGTCTAC | 0.0656
12 | AACTTGGC | 0.139
13 | AGCCTGAA | 0.223
14 | ATGCTCGC | -0.0921
15 | CTAACTAA | -0.0879
16 | AAGTCGCC | -0.135
17 | GTGGGCAA | 0.0173
18 | CCTGGACC | -0.141
19 | ACCCCACG | -0.0319
20 | ATCGGAAC | -0.146
21 | GCGCTAAC | 0.0565
22 | CAGGCAAA | 0.481
23 | CATGAATA | 0.055
24 | ACACACTC | 0.123
25 | AACGCCTA | 0.122

Row | Sequence | PBM E-score
26 | CGGGAACG | -0.287
27 | ACCCCGAG | -0.137
28 | AGTCCTCG | -0.234
29 | AGGCCTGC | -0.199
30 | GGAGCGGA | -0.366
31 | AAGTGTGG | -0.129
32 | ATCACACA | 0.143
33 | CATCGACA | -0.0588
34 | ACCATTGG | -0.0313
35 | ACTGACGG | -0.296
36 | ACTCCCTC | -0.312
37 | GACGCATA | 0.029
38 | AGACCACG | -0.314
39 | GTGGAAAA | 0.0872
40 | GTGCGAAA | 0.0374
41 | AGGACTTC | -0.217
42 | AAACAAGA | 0.191
43 | GGTGAGTA | 0.0296
44 | AGCAGCGC | 0.0375
45 | CCAGCGTC | -0.408
46 | CACTCATC | -0.147
47 | CGCGCCAC | -0.141
48 | AGACCCAA | -0.222
49 | AGTAGCAA | 0.0301
50 | CAAAACCC | 0.023

Row | Sequence | PBM E-score
51 | GTCAATTA | 0.134
52 | ACGGTGCG | 0.0148
53 | ACACGAAA | 0.279
54 | TAGTTATA | 0.171
55 | CGCGATCC | -0.0665
56 | GACAATGC | 0.123
57 | GAGATCCA | -0.28
58 | AATTCCGA | 0.0959
59 | AGATCTGG | -0.227
60 | AGAGATTC | -0.0172
61 | GGCAACAA | 0.31
62 | ACATGCCT | 0.366
63 | ATTCTGAG | 0.0253
64 | TATTGTCA | -0.117
65 | ATTTCACA | 0.152
66 | CATCTTCG | -0.187
67 | GTCACTGA | -0.15
68 | CTTACAAA | 0.15
69 | ACCGCCGA | -0.0975
70 | CACACGTC | 0.197
71 | AAGTCACT | 0.0807
72 | CAGATGTC | -0.239
73 | ACTCCCGG | -0.182
74 | CCCCGTAC | -0.258
75 | GGCTGCCA | -0.192

Row | Sequence | PBM E-score
76 | AACGGAGC | -0.015
77 | AGACACCG | -0.0613
78 | ACCCATGC | 0.0158
79 | TCATCAGA | -0.15
80 | AACCAACG | -0.0703
81 | TATTTCGA | 0.0769
82 | GGTGGTAC | -0.157
83 | GAGGAAGC | -0.225
84 | ATGACAGC | -0.208
85 | CTCAGCTC | -0.243
86 | CCTCCCTA | -0.172
87 | GATGGAGA | -0.26
88 | AAGATCTC | -0.0117
89 | GGGAACAC | 0.0104
90 | CGACCAAC | -0.0351
91 | AATACTAG | 0.225
92 | ACGGGGCC | -0.252
93 | CTTTAAGC | -0.00833
94 | CTCGATCC | -0.161
95 | CTCTACCC | -0.225
96 | TAGGAAAA | 0.384
97 | CTCCTAAA | 0.00392
98 | CAATATTA | 0.0698
99 | ACCGCTTA | -0.0982
100 | CCGTCTTA | -0.231

Row | Sequence | PBM E-score
101 | GACTTGAC | 0.024
102 | AATGAAGC | -0.0388
103 | CCCTGTCC | -0.124
104 | CGCCATTA | -0.0118
105 | CTGCAAAC | -0.0163
106 | CAGCAAGA | -0.117
107 | AATCGCTG | -0.184
108 | CGAATGTA | 0.186
109 | GCGGCAAA | -0.205
110 | AATCCCCC | -0.267
111 | ATGTAATC | 0.367
112 | AGAGATTG | 0.0517
113 | AGAGCTGA | -0.205
114 | AGGCGGAG | -0.273
115 | GCGCAGCC | -0.343
116 | AGTCGGCA | 0.00196
117 | ATTGTTCC | 0.0862
118 | AAGCTCGG | -0.178
119 | GCGTTGCC | 0.177
120 | CTTAGCGA | 0.0773
121 | CAATGTCG | 0.0795
122 | AATGAGTC | -0.0515
123 | AGCGCCTG | 0.265
124 | GACCATTA | -0.0478
125 | ACTTACAC | 0.217

Row | Sequence | PBM E-score
126 | AACAAGCG | 0.211
127 | TACCGAAA | 0.0135
128 | TACACAGA | 0.33
129 | CCTTACAC | 0.298
130 | AAGAAGCT | -0.00753
131 | ATGCTTAG | 0.0516
132 | GGAGCTAA | -0.0703
133 | AACATGGT | 0.297
134 | TGAGCTAA | -0.083
135 | AGAGACAA | -0.146
136 | GATAGGCA | 0.473
137 | CAAACTCC | -0.0232
138 | AGGATTAA | 0.0264
139 | ATGGTCAG | -0.109
140 | GAACTGGA | -0.0796
141 | TATGAAAA | 0.00052
142 | CGCGTGAA | 0.172
143 | CATAGGGG | -0.236
144 | GCCGACCA | -0.166
145 | GGACGCCA | -0.282
146 | ACAAATGA | 0.113
147 | AGACTACT | 0.0356
148 | ATCCTAAC | 0.137
149 | CGAGCCGC | -0.0992
150 | AGGTAAGG | 0.254

Row | Sequence | PBM E-score
151 | GCATTGAA | 0.0529
152 | GTAGCGAC | -0.0445
153 | CGTAAAAC | 0.202
154 | CGACATTA | 0.151
155 | GTAGCCTA | 0.177
156 | ACTCTGAC | -0.157
157 | GGCCTAGA | -0.201
158 | AGGTAGTC | -0.0855
159 | AGCCAGAC | -0.109
160 | ATCCTGGA | 0.00329
161 | GGTCCATA | -0.176
162 | ATGATTTC | 0.0179
163 | CCCCCAGG | -0.159
164 | GTGAAACA | 0.103
165 | GGGGGATA | -0.283
166 | GCGCTACA | 0.0184
167 | AAATGTCC | 0.00503
168 | AATGGCGT | -0.0278
169 | AAATTCCC | -0.107
170 | AAGTAAGA | 0.124
171 | GGCCAGGA | -0.232
172 | CGTGTCCC | -0.0172
